Source: patent publication US9464071B2 (priority 2010, dated 2016)
Where “and” joins values, the source holds several entries; their conditions need not be identical. Equal values may be shown once. Where a name gives a salt, the structure may show the parent alone.

In order of rising melting point:
1. COc1cc(OC)cc(N(C[C@@H](O)CNC(C)C)c2ccc3ncc(-c4cnn(C)c4)nc3c2)c1 (as salt: HCl)  94.44 °C
2. COc1cc(OC)cc(N(C[C@@H](O)CNCC(F)(F)F)c2ccc3ncc(-c4cnn(C)c4)nc3c2)c1  126.8 °C
3. COCCc1cc(OC)cc(N(CC2CC2)c2ccc3ncc(-c4cnn(C)c4)nc3c2)c1  130 °C
4. COc1cc(OC)cc(N(CC2CCNCC2)c2ccc3ncc(-c4cnn(C)c4)nc3c2)c1 (as salt: HCl)  163 °C
5. COc1cc(OC)cc(N(CCC#N)c2ccc3ncc(-c4cnn(CCO)c4)nc3c2)c1  163.47 °C
6. COc1cc(OC)cc(N(CCCN2CCCC2)c2ccc3ncc(-c4cnn(C)c4)nc3c2)c1  167.79 °C
7. COc1cc(OC)cc(N(CCn2cccn2)c2ccc3ncc(-c4cnn(C)c4)nc3c2)c1  168 °C
8. COc1cc(OC)cc(N(CCCO)c2ccc3ncc(-c4cnn(C)c4)nc3c2)c1  168 °C
9. COc1cc(OC)cc(N(CCNC(C)C)c2ccc3ncc(-c4cnn(CCCN)c4)nc3c2)c1  170 °C
10. COc1cc(OC)cc(N(CCCN)c2ccc3ncc(-c4cnn(CCS(C)(=O)=O)c4)nc3c2)c1  172.65 °C
11. COc1cc(OCC2CC2)cc(N(CC2CC2)c2ccc3ncc(-c4cnn(C)c4)nc3c2)c1  176.3 °C
12. COc1cc(OC)cc(N(CC(NC(C)C)C(C)C)c2ccc3ncc(-c4cnn(C)c4)nc3c2)c1 (stereo not drawn) (as salt: HCl)  186 °C
13. COc1cc(OC)cc(N(CCO)c2ccc3ncc(-c4c(C)nn(C)c4C)nc3c2)c1  190 °C
14. COc1cc(OC)cc(N(CCC(=O)NCC(F)(F)F)c2ccc3ncc(-c4cnn(C)c4)nc3c2)c1  196 °C
15. COc1cc(OC)cc(N(CCS(C)(=O)=O)c2ccc3ncc(-c4cnn(C)c4)nc3c2)c1  209 °C
16. COc1cc(OC)cc(N(CCN(CCCN)C(C)C)c2ccc3ncc(-c4cnn(C)c4)nc3c2)c1 (as salt: HCl)  210 °C
17. C#CCN(c1ccc2ncc(-c3cnn(C)c3)nc2c1)c1c(Cl)c(OC)cc(OC)c1Cl  220 °C

With `COc1cc(OC)cc(N(CCNC(=O)C2CCCN(C)C2)c2ccc3ncc(-c4cnn(C)c4)nc3c2)c1` (stereo not drawn) the melting point was 142 °C and 141.79 °C.
For `CNC(=O)CN(c1cc(OC)cc(OC)c1)c1ccc2ncc(-c3cnn(C)c3)nc2c1`, the melting point was 252 to 254 °C and 253 °C.
For `COc1cc(OC)cc(N(CCCO)c2ccc3ncc(-c4cn[nH]c4)nc3c2)c1`, the melting point was 202 °C and 202.6 °C.
With `COc1cc(Cl)cc(N(CCCN2CCCC2)c2ccc3ncc(-c4cnn(C)c4)nc3c2)c1` (as salt: HCl) the melting point was 162 °C and 161.91 °C.
With `COc1cc(OC)cc(N(CCCO)c2ccc3ncc(-c4cnn(CCO)c4)nc3c2)c1` the melting point was 142 °C and 142.35 °C.
In the case of `COc1cc(OC)cc(N(CC2CC2)c2ccc3ncc(-c4cnn(CCO)c4)nc3c2)c1`, the melting point is reported as 147.5 °C and 147.56 °C.
In the case of `COc1cc(OC)cc(N(CC#CC2CCNCC2)c2ccc3ncc(-c4cnn(C)c4)nc3c2)c1` (as salt: HCl), the melting point is reported as 194 °C and 189 °C.
